Reference: PMC4336329 (PLoS ONE, 2015)
Among all 310,000 compounds or so, about 14,000 (4.5%) showed an effect of 50% or more. The effect is printed as a negative number. The list shows a part of the results.

Biological target: human ether-à-go-go-related gene (hERG) potassium channel (human, UniProt Q12809)
Experiment: primary screen, population patch clamp on CHO cells stably expressing hERG
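Note: peak tail current of the secondary pulse compared with the same well before compound.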

Sequence of human ether-à-go-go-related gene (hERG) potassium channel (Q12809 whole entry, looked up): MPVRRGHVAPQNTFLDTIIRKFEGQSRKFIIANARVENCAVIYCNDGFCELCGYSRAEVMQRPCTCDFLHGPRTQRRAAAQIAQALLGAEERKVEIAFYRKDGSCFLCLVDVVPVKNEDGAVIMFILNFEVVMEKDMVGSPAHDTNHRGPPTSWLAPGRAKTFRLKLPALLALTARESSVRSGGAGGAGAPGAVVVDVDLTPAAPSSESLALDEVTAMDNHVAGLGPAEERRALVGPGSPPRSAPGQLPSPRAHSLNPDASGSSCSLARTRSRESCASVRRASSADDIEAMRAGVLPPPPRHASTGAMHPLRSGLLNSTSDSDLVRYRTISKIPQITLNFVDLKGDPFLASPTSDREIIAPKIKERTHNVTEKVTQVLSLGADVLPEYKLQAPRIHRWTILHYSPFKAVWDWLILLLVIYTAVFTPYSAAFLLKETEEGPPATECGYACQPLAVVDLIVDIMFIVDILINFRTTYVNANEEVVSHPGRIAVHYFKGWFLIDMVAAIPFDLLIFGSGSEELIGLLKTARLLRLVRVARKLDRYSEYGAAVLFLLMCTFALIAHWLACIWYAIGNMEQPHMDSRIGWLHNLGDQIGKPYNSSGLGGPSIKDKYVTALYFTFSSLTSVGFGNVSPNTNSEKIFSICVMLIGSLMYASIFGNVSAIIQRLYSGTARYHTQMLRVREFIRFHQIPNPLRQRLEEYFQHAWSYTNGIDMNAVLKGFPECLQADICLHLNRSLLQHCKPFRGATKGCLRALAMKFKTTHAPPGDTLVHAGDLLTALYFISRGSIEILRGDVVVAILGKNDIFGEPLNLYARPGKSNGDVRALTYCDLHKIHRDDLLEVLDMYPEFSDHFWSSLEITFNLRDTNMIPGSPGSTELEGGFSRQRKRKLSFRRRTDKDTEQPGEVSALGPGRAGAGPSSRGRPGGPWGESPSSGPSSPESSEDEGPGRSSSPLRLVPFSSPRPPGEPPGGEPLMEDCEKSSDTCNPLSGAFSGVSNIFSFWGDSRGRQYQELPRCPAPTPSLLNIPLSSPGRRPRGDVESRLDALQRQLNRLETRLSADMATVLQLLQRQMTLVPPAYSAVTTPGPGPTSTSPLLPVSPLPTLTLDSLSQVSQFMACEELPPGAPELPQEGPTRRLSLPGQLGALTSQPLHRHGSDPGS

Compound	hERG current change (%, negative = inhibition) at 10uM [%]
COC(=O)C1=C(C)NC(C)=C([N+](=O)[O-])C1c1ccccc1C(F)(F)F (stereo not drawn)	8.6
CSc1nc2c(c(=O)[nH]1)C(c1ccc(Br)cc1)CC(=O)N2 (stereo not drawn)	-2.36
O=c1cc(CN2CCN(c3ccc(F)cc3)CC2)nc2sccn12	-19
Cc1cccc(NC(=O)C23CCC(C)(C2Br)C3(C)C)c1 (stereo not drawn)	7.37
O=C(CCc1nnc(-c2ccccc2)o1)NC1CCCCC1	14.3
COc1cccc(-c2c(NC(=O)c3ccco3)n(-c3ccc(C)cc3)nc(C)c2=O)c1	-30.7
C/C=C(/C)C(=O)Nc1cccc(C2=NOC3(C2)C[C@@H](C(N)=O)N(C(=O)[C@H]2CCC(=O)N2)C3)c1 (stereo partly drawn)	-2.5
CN1CCN(c2nc3c(c(=O)[nH]c(=O)n3C)n2Cc2ccc([N+](=O)[O-])cc2)CC1	-59
Cc1cc(NC(=O)CCC(=O)N2CCC3(CC2)OCCO3)no1	12.5
Cc1ccc2c(n1)CC(C)(C)C/C2=N\O	7.03
Cc1cccc(/C=N/c2sc3c(c2C(=O)OC(C)(C)C)CCN(C)C3)c1O	-24.7
CCn1cc(S(=O)(=O)Nc2nc3ccc(OC)cc3s2)cn1	19.7
CCOC(=O)Cc1ncccc1C(=O)Nc1ccc(OC)cc1	30.6
O=C(NCc1ccccc1)C1=C[C@H](C2CC2)C[C@H](OCCCCO)O1	-10.1
O=C(NN1C(=O)C2C3C=CC(O3)C2C1=O)c1ccccc1 (stereo not drawn)	5.64
O=C(O)c1c2c(nc3ccc(S(=O)(=O)N4CCC(C(=O)N5CCCCC5)CC4)cc13)CCCC2	-1.48
Cc1cc(C)cc(OCC(O)Cn2nc(C)cc2C)c1 (stereo not drawn)	-6.38
Cc1cc(C)n2nc(C(=O)N3CCN(Cc4ccc5c(c4)OCO5)CC3)nc2n1	13.8
c1ccc(OCCn2c(-c3ccco3)nc3ccccc32)cc1	-24
COc1ccc(CNC(=O)N2CCN(S(=O)(=O)c3ccccc3F)CC2)cc1	-7.02
N#Cc1cccc(-n2c(-c3ccccc3)nnc2-c2ccccc2)c1C#N	-9.39
CC(=O)Nc1ccc(S(=O)(=O)N(Cc2ccccc2)C(C)C)cc1	-13
COc1ccc(S(=O)(=O)N2CCOC2CNC(=O)C(=O)NCCc2c[nH]c3ccccc23)cc1C (stereo not drawn)	-12
CC(=O)c1nn(-c2ccccc2)cc1C(=O)c1cccc(Br)c1	-0.808
